Results: patent publication US20050048528A1 (WALTER AND ELIZA HALL INSTITUTE OF MEDICAL RESEARCH, published 2005)

Target: T1, HA-tagged BRCA1 SZ fragment (residues 1528-1863) (human, UniProt P38398 1528-1863, 35S-methionine-labeled in the in vitro binding assay)
T1 construct: also called BRCT (SZ) region
Assay: in vitro binding of 35S-labeled BRCA1-SZ to GST on glutathione sepharose, SDS-PAGE
Protocol: Binding assays were carried out with a 10 μl aliquot of […] BRCA1-SZ primed lysate and 100 μl (50% slurry of GST-sepharose beads; Amersham Pharmacia) of GST-LMO4 or GST-only protein in GST interaction buffer (150 mM NaCl, 10 mM Tris pH 8, 0.3% NP-40, 1 mM DTT, 0.25% BSA and 0.5 mM phenylmethylsulfonyl fluoride) for 2 hours at 4° C. The beads were subsequently washed twice in GST interaction buffer containing BSA, followed by two more washes in GST interaction buffer without BSA. Finally, the bound BRCA1 C-terminal polypeptide was eluted by boiling the beads for 5 min in 30 μl loading buffer and analysed by SDS-PAGE.
This region encompasses two tandem BRCT motifs that are required for BRCA1 function in the suppression of tumorigenesis (Yu, X., Wu, L. C., Bowcock, A. M., Aronheim, A., and Baer, R. (1998) J Biol Chem 273(39), 25388-92;Wong, A. K., Ormonde, P. A., Pero, R., Chen, Y., Lian, L., Salada, G., Berry, S., Lawrence, Q., Dayananth, P., Ha, P., Tavtigian, S. V., Teng, D. H., and Bartel, P. L. (1998) Oncogene 17(18), 2279-85;Li, S., Chen, P. L., Subramanian, T., Chinnadurai, G., Tomlinson, G., Osborne, C. K., Sharp, Z. D., and Lee, W. H. (1999) J Biol Chem 274(16), 11334-8). We confirmed the association between LMO4 and BRCA1 using an in vitro binding assay.

binding result: no binding
B1: GST alone (other)
chain: not shown
notes: also called GST-only protein
